# Measurements published in the RNAGym collection of RNA variant scans (doi:10.7554/elife.90254).
# The source gives no read counts; variants with many changes may rest on few reads.
# B1: LINE1-mini (parent)
# chain: GGCAGAGCUCAACACAGCGUGGCAAAGUGGCUGUGGCUAGACUGCC
# Variants of: B1
# Assay: self-cleavage, relative activity (ratio to wild type); higher = more cleavage; in vitro, sequencing; the parent is a self-cleaving ribozyme
row,Variant,self-cleavage
1,C18U G19U G21C A25G A26C G29U,0.6
2,C18A G29A U34G,0.22
3,A6C C10A C15A C18U G30A,0.01
4,A4U C15G C18A G40A,0.03
5,A6G A16U C23U A26G G30U,0.01
6,A4U C18G G29C G44C,0.14
7,C8G C15A C37U,0.08
8,A4U G5C C37A,0.08
9,U9G A16G G29U G33U,0.03
10,U9G U32G U34G G36C,0
11,A4G G19C A24C,0.02
12,G2C A14G C46U,0.02
13,A11G C15G G30U C31G A39U,0.01
14,C8G A12U C13A G27C,0.06
15,C3G G5C C13A A16C U32G,0.02
16,C3A A4C U9A G33A,0.21
17,A24G C31U C42A,0
18,C3A G7A G17A,0.2
19,G1U G2A G22U C23G A24G G44C,0.15
20,G5U A6U C8U A25G G35U,0.13
21,C10U C18U G44A,0.34
22,C8A G19U C46U,0.03
23,C8G C10A A26U G27U C42U,0.06
24,U9A A11G A14C,0.02

row,Variant,self-cleavage
1,A16U C31G A39G,0.04
2,C8G G29A C31A C37U,0.06
3,A12U G22C C37A,0.02
4,C18G G22U C45U,0.21
5,A6C G29A C42U,0.18
6,A16G G35C C46A,0.04
7,G1U G30C U43G,0.66
8,U20C C37U G44U,0.07
9,G2A C13U U32G,0.12
10,U20G C23G G30U,0.53
11,G21U G33A G35C U38G,0.04
12,A4G G17U G35C A39G,0.05
13,G1A A6C G21A A39C,0.36
14,G17A U20G A24C A41U,0.02
15,G5U C8G C23G,0.13
16,C10G A16U A39U,0.04
17,G5U G7U A12G G19A C46A,0.01
18,A12U C13G C15G A25U G30C,0.01
19,G1U A24G A25C G40A,0.03
20,C13A C15U A24U U32G,0.89
21,G2C A11G A12G U32G,0.03
22,G2C A4C A6U A16U G19A G27A,0.28
23,A25U C37U A41U,0.03
24,G5A C13A G19U C42G U43A,0.07

row,Variant,self-cleavage
1,G2A U28G U32C C46G,0.04
2,A16C G29U U32G,0.26
3,G19C G40U C45G,0.08
4,G36U C37U C42U,0
5,U9C G17C C18G G22U A41C,0.01
6,A6U C15A U20C,0.03
7,G7A C15G C23A G30C C31G,0.5
8,C10A A26U C31A U32G U34C,0.03
9,G2U C3A U20A C31A U34C,0.07
10,G1A C13A C15U C23G C31U,0.07
11,G1C G2A C31G U32G G40A,0.06
12,G7U C13G U20C A24C A25C G40A C45A,0.01
13,C8G A16U G17U A39G,0.02
14,A4C U32G U43C G44C,0.02
15,G29C U32A G35U,0.03
16,G2U G22C G40C C42A,0.02
17,G19C G35U U38C,0.03
18,G30A U38C C42G,0.03
19,G2U G5U C31G U34G C45U,0
20,C3U G22C A26C G27A,0.2
21,G2C G7U U28C G44C,0.29
22,G1U A14C C15A C23U G30C C46G,0.03
23,G1U C10A A11G G33U,0.04
24,G7C A26U C42A,0.08

row,Variant,self-cleavage
1,G5A G19U G33A G40C U43G C45G,0.01
2,G2C C15A A25U U43C,0.02
3,G2U A4U G22C G27C,0.03
4,A4C C13A C15A,0.14
5,C3A C10G C15G G44C,0.03
6,C13U G17A A41C G44A,0.04
7,A14G C18A C23A A25U G44C,0.13
8,U28C U34C G36U C46G,0.05
9,A11G G29U G44U,0
10,C3A C8A A14C U28A,0.06
11,U9C C18G C46U,0.02
12,G7A G17C G22A A26C G27A G36A C37G,0.02
13,G5U A39U G44U,0.08
14,G22A G27U G33U G35C,0.05
15,A4G C15G A16U C45G,0.01
16,C10G G17U G22U A25G G40C,0.01
17,C15U C31G A39U,0.05
18,C23A A26C A39G,0.07
19,A6G A12G C42G,0.01
20,G7C C8U U38A,0.04
21,U20A C23G G30A G40A,0.02
22,C18U G29U A39U C42U,0.63
23,G2C G17U G36A,0.08
24,U9C C10A A11C G19U,0.01

row,Variant,self-cleavage
1,G17U C23U G36U A39G,0.02
2,C23A G27A U38G A39C,0.02
3,G2U C8G C13U G30A,0.07
4,C3U C10U C18U G29C G33U U43C,0.01
5,G1U C8U C10G A25G,0.01
6,G1U G27A G30A,0.18
7,G5C U32A U34C,0.03
8,U9C G17C C23U,0.02
9,G5A C37G C45U C46G,0.01
10,G17A G36A A41U,0.17
11,G7A U32A U43C,0.57
12,C15A C31G U38G,0.02
13,C3A C10G G40C,0.03
14,G5U A14G C15A A16U C18G G44A,0.07
15,C3U C8U A25C G27C C37U C45A,0.08
16,G2A A11U C18A G19U U32G G33C,0.04
17,G7A A12U U43A,0.12
18,C8G A14G A16G G17U U28A G30U U34A C37G A41U,0.03
19,C3U C10G U28G,0.05
20,G17U C23A G29U,0.13
21,A4G G5C A6C C45A,0.24
22,C13U G27C G40A,0.11
23,C10A U20A G29A,0.02
24,G5U A14G C18G A24G U32C,0

row,Variant,self-cleavage
1,G2C A6C G40A,0.01
2,G19C G29U U34A G44A C46G,0.16
3,C3G U9G U28A C42G,0.05
4,G1U G17A G21U,0.58
5,G2A U9G G30A C42A,0.03
6,A4G G7U C31A,0.25
7,G2U G33U A41G,0.04
8,C18G A26C C31G U34G,0.01
9,G1U C15A G44C,0.06
10,C8G A24C C42G G44C,0.04
11,U9C C13U G27C,0.04
12,C10A A39U G44A,0.03
13,G5C G7C C15A A25G,0.04
14,C10A C23A G33A C46A,0.02
15,C10G G27A A39C,0.02
16,C8G U43A C46G,0.04
17,C10A G30U G36C,0
18,C8A C13G A16U G36C C45A,0.09
19,U9A C15A A24G A39G,0.1
20,G2A C3U A12G,0.22
21,C3G C8G U34A,0.04
22,G29A C42A U43A,0.04
23,C18U G35U A39U,0.02
24,C10G C42G U43A,0.02

row,Variant,self-cleavage
1,A26C A41U U43A,0.04
2,C10A A24U G29A G33C G44U,0.02
3,C8U U34C G40U,0.11
4,G7C C8U C37G,0.01
5,G1U G5U C10U G17A,0.05
6,G5C C8A C13A,0.07
7,A14U C37A C46U,0.04
8,G1U C37G C42A,0
9,C10U G19A G27U,0.13
10,C8A U34G G35C G44U,0.06
11,G2U A24U C31A C46U,0
12,C23G U38C A39G,0.6
13,G1C C10A C15A G22C,0.02
14,G5A C10A A12C,0.01
15,G5A C8A C10G C23U C31A G40A C45G,0.02
16,G36C A41C U43G,0.01
17,G2C A14U G21U C46A,0.09
18,C10G A41G U43C,0.02
19,A4U A6G C10A G22A G36U,0.02
20,A14G A16C G33U,0.01
21,G2U G30A G33A,0.1
22,C3U C10A A11C C18U,0.02
23,C8U A24G C31G G40U,0.02
